Measurements as given in PubChem BioAssay AID1508624 (National Center for Advancing Translational Sciences (NCATS), 2021).
Screen size: about 48,000 compounds; about 120 (0.25%) were called active. Not shown: some 4% with an inconclusive outcome. Calls come from the whole dose curve; as a rule, active = well fitted activation curve with a large enough effect; inconclusive = small, poorly fitted or top-dose-only effect, or another doubt; inactive = no such curve, though single readings can be large or run the other way. The list shows a part of the results.

test: Primary qHTS for Identification of Small Molecule Activators of Huntingtin-Antisense Promoter Activity; details: HEK293 HTT-AS promoter firefly luciferase reporter (activity 0% = vehicle and -100% = no light), 24 h; series mostly up to 57.5 µM; activity change, positive = activation: at the top concentration; note: nearly all actives have a fitted effect of over 55% in size
Outline: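 HEK293 cells carrying firefly luciferase reporters were seeded at 2,500 per well in Opti-MEM and cultured for 24 h. They were then treated with compounds at up to 57.5 uM final for 24 h at 37 degrees C before Dual-Glo luminescence readout.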

Activity change, positive = activation, inactive:
CC1=C(c2ccc(C(C)C)cc2)S(=O)(=O)N=C1N1CCN(c2ccc(F)cc2)CC1 -13.8%, O=C(CCCc1ccccc1)NC1CC(=O)N(c2ccc(Cl)cc2)C1 (stereo unspecified) -10.1%, COc1ccccc1C(=O)n1nc(-c2cccnc2)nc1NCc1ccccc1 13.4%, Cc1ccc(Cl)cc1NC(=O)c1ccc(NC(=O)N2CCSc3ncccc32)cc1 -14.8%, Cc1cccc(-c2nc3c4ccccc4nc(N4CCN(c5ccc(F)cc5)CC4)n3n2)c1 -4.11%, CC1=Nc2cc(C(=O)NC3CCCCC3)ccc2Sc2ccc(Cl)cc21 -38.3%, COc1ccccc1NC(=O)CSC1=Nc2ccccc2C2=NC(CC(=O)NCCc3ccccc3)C(=O)N12 (stereo unspecified) -26.6%, CCOc1ccc(Nc2c(S(=O)(=O)c3ccc(C)cc3)cnc3cc(OC)c(OC)cc23)cc1 -34.4%, COc1ccc(CCNC(=O)c2ccc3c(c2)sc2nc(-c4ccc(C)cc4)cn23)cc1OC -4.46%, CCc1ccccc1NC(=O)Cn1nnc(-c2nc(-c3ccncc3)no2)c1N -6.04%, COc1cc(NS(=O)(=O)c2ccc3c(c2)CC(=O)N3)cc(OC)c1OC -10.8%, Cc1ccc(NC(=O)C2CCN(S(=O)(=O)c3ccc4c(c3)CCCC(=O)N4)CC2)c(Cl)c1 -25.8%, O=C(NC1(C(F)(F)F)C(=O)Nc2c1c(=O)[nH]c(=O)n2CCc1ccccc1)c1ccc(Cl)cc1 (stereo unspecified) -1.65%, CCCCC(=O)Nc1ccc2nc(SCC(=O)N3CCOCC3)sc2c1 -4.46%, CCOc1ccc(NC(=O)CN2CCN(CC(=O)Nc3ccc(N(CC)CC)cc3)CC2)cc1 3.58%, COc1cc(NS(=O)(=O)c2ccc3[nH]c(=O)[nH]c3c2)cc(OC)c1 -12.1%, COc1cccc2c1Oc1ncccc1N(c1ccc(C(=O)NCc3ccccc3C)s1)C2 -24.5%, Cc1ccc(NC(=O)c2c(C)oc3ncn(C)c(=O)c23)cc1F 11.7%, O=C(CCNS(=O)(=O)c1ccc2c(c1)CCCC(=O)N2)Nc1cccc(Cl)c1 -13.2%, O=C(NCCc1ccccc1)c1ccc(CS(=O)Cc2ccc(Cl)cc2)o1 (stereo unspecified) -2.72%, COc1ccc(C(=O)c2c(N)c(-c3nc(-c4ccc5c(c4)OCO5)cs3)c3ccccn23)cc1 -4.63%, COC(=O)Cn1c(C2CC(=O)N(c3c(C)cccc3C)C2)nc2ccccc21 (stereo unspecified) -6.23%, Cc1cc(NC(=O)CCc2nc3cccnc3n2-c2ccccc2)ccc1Br -39%, O=C(Nc1ccc(F)cc1F)C1CCN(c2ncccn2)CC1 -7.28%, O=S(=O)(c1ccc(C2CCCCC2)cc1)N1CCN(c2ccc(Cl)c(Cl)c2)CC1 -8.34%, Cc1ccccc1NC(=O)Cn1cc(C(=O)c2ccco2)c2ccccc21 -24.2%
